What is called IC50 is the concentration that gives 50% inhibition.

The source of these data is US11618753B2 (priority 2018, dated 2023).

Molecules are shown by their SMILES.

The subject of the assay is MLKL phosphorylation, HT29-L23 human colorectal adenocarcinoma cells. As to the kind of experiment: cells. As to conditions: read-out: pMLKL HCS Cell Assay (IC50, uM).
On to `COc1ncc(-c2cc(C(F)(F)F)c3c(N)ncnn23)cc1C(=O)NC1CN(Cc2ccc(Cl)cc2)CC1F` (racemic) [Example 224, 5-[4-amino-5-(trifluoromethyl)pyrrolo[2,1-f][1,2,4]triazin-7-yl]-N-{1-[(4-chlorophenyl)methyl]-4-fluoropyrrolidin-3-yl}-2-methoxypyridine-3-carboxamide], for which the IC50 was found to be 0.0089 µM.

On to `CC(C)C(=O)N1C[C@H](F)[C@H](NC(=O)c2cccc(-c3cc(CN4CC(F)(F)C4)c4c(N)ncnn34)c2)C1` [Example 1172, 3-{4-amino-5-[(3,3-difluoroazetidin-1-yl)methyl]pyrrolo[2,1-f][1,2,4]triazin-7-yl}-N-[(3R,4S)-4-fluoro-1-(2-methylpropanoyl)pyrrolidin-3-yl]benzamide], for which the IC50 was found to be 0.0055 µM.

In the case of `Cc1ncc(-c2cc(C(F)(F)F)c3c(N)ncnn23)cc1C(=O)Nc1cn(C(c2ccccc2)C(F)(F)F)cn1` (stereo not drawn) [Example 1799, 5-(4-amino-5-(trifluoromethyl)pyrrolo[2,1-f][1,2,4]triazin-7-yl)-2-methyl-N-(1-(2,2,2-trifluoro-1-phenylethyl)-1H-imidazol-4-yl)nicotinamide], the IC50 is 0.0046 µM.

Consider `COc1ncc(-c2cc(CN3CCC(F)(F)CC3)c3c(N)ncnn23)cc1C(=O)N[C@@H]1CN(C(=O)c2ccccc2Cl)C[C@@H]1F` [Example 1240, 5-{4-amino-5-[(4,4-difluoropiperidin-1-yl)methyl]pyrrolo[2,1-f][1,2,4]triazin-7-yl}-N-[(3R,4S)-1-(2-chlorobenzoyl)-4-fluoropyrrolidin-3-yl]-2-methoxypyridine-3-carboxamide], for which the IC50 came out at 0.0013 µM.

Turning to `Nc1ncnn2c(-c3ccc(CF)c(C(=O)N[C@@H]4CN(C(=O)CC(O)(C(F)(F)F)C(F)(F)F)C[C@@H]4F)c3)cc(C(F)(F)F)c12` [Example 912, 5-[4-amino-5-(trifluoromethyl)pyrrolo[2,1-f][1,2,4]triazin-7-yl]-N-[(3R,4S)-4-fluoro-1-[4,4,4-trifluoro-3-hydroxy-3-(trifluoromethyl)butanoyl]pyrrolidin-3-yl]-2-(fluoromethyl)benzamide], the IC50 amounted to 0.0023 µM.

Consider `Cc1ccc(-c2cc(C(F)(F)F)c3c(N)ncnn23)cc1C(=O)Nc1cc(C)n(Cc2ccc(F)cc2)n1` [Example 1813, 5-(4-amino-5-(trifluoromethyl)pyrrolo[2,1-f][1,2,4]triazin-7-yl)-N-(1-(4-fluorobenzyl)-5-methyl-1H-pyrazol-3-yl)-2-methylbenzamide], for which the IC50 turned out to be 0.0023 µM.

`Cc1c(F)cc(-c2cc(C(F)(F)F)c3c(N)ncnn23)cc1C(=O)N[C@@H]1CN(C(=O)C(C)(C)C)C[C@@H]1F` [Example 666, 5-[4-amino-5-(trifluoromethyl)pyrrolo[2,1-f][1,2,4]triazin-7-yl]-N-[(3R,4S)-1-(2,2-dimethylpropanoyl)-4-fluoropyrrolidin-3-yl]-3-fluoro-2-methylbenzamide]: the IC50 was 0.0029 µM.

On to `COc1ncc(-c2cc(CN3CCC(F)(F)CC3)c3c(N)ncnn23)cc1C(=O)N[C@@H]1CN(C(=O)c2c(F)cncc2F)C[C@@H]1F` [Example 1243, 5-{4-amino-5-[(4,4-difluoropiperidin-1-yl)methyl]pyrrolo[2,1-f][1,2,4]triazin-7-yl}-N-[(3R,4S)-1-(3,5-difluoropyridine-4-carbonyl)-4-fluoropyrrolidin-3-yl]-2-methoxypyridine-3-carboxamide], for which the IC50 turned out to be 0.00037 µM.

`Nc1ncnn2c(-c3ccc(Cl)c(C(=O)N[C@@H]4CN(C(=O)CC(C(F)(F)F)C(F)(F)F)C[C@@H]4F)c3)cc(C(F)(F)F)c12` [Example 926, 5-[4-amino-5-(trifluoromethyl)pyrrolo[2,1-f][1,2,4]triazin-7-yl]-2-chloro-N-[(3R,4S)-4-fluoro-1-[4,4,4-trifluoro-3-(trifluoromethyl)butanoyl]pyrrolidin-3-yl]benzamide]: the IC50 turned out to be 0.003 µM.

Take `CCc1ccc(-c2cc(C(F)(F)F)c3c(N)ncnn23)cc1C(=O)N[C@@H]1CN(C(=O)C(O)(CC)C(F)(F)F)C[C@@H]1F` (stereo partly drawn) [Example 967, 5-[4-amino-5-(trifluoromethyl)pyrrolo[2,1-f][1,2,4]triazin-7-yl]-2-ethyl-N-[(3R,4S)-4-fluoro-1-[2-hydroxy-2-(trifluoromethyl)butanoyl]pyrrolidin-3-yl]benzamide]: the IC50 was determined as 0.016 µM.

Turning to `COc1ncc(-c2cc(C(F)(F)F)c3c(N)ncnn23)cc1C(=O)N[C@@H]1CN(C(=O)c2cnc(C)nc2)C[C@@H]1F` [Example 1214, 5-[4-amino-5-(trifluoromethyl)pyrrolo[2,1-f][1,2,4]triazin-7-yl]-N-[(3R,4S)-4-fluoro-1-(2-methylpyrimidine-5-carbonyl)pyrrolidin-3-yl]-2-methoxypyridine-3-carboxamide], the IC50 amounted to 0.181 µM.

In the case of `[2H]C([2H])([2H])Oc1ncc(-c2cc(CN3CC(F)(F)C3)c3c(N)ncnn23)cc1C(=O)N[C@@H]1CN(S(=O)(=O)CCc2ccccc2)C[C@@H]1F` [Example 1297, 5-{4-amino-5-[(3,3-difluoroazetidin-1-yl)methyl]pyrrolo[2,1-f][1,2,4]triazin-7-yl}-N-[(3R,4S)-4-fluoro-1-(2-phenylethanesulfonyl)pyrrolidin-3-yl]-2-(methoxy-d3)nicotinamide], the IC50 was found to be 0.0091 µM.

As for `Cc1ccc(-c2cc(C(F)(F)F)c3c(N)ncnn23)c(F)c1C(=O)N[C@@H]1CN(C(=O)CC(O)(C(F)(F)F)C(F)(F)F)C[C@@H]1F` [Example 759, 3-[4-amino-5-(trifluoromethyl)pyrrolo[2,1-f][1,2,4]triazin-7-yl]-2-fluoro-N-[(3R,4S)-4-fluoro-1-[4,4,4-trifluoro-3-hydroxy-3-(trifluoromethyl)butanoyl]pyrrolidin-3-yl]-6-methylbenzamide], the IC50 is 0.0027 µM.

As for `[2H]C([2H])([2H])Oc1ncc(-c2cc(C(F)(F)F)c3c(N)ncnn23)cc1C(=O)N[C@@H]1CN(C(=O)c2ccc(F)cc2)C[C@@H]1F` [Example 376, 5-[4-amino-5-(trifluoromethyl)pyrrolo [2,1-f][1,2,4]triazin-7-yl]-N-[(3R,4S)-4-fluoro-1-(4-fluorobenzoyl)pyrrolidin-3-yl]-2-(deutero)methoxypyridine-3-carboxamide], the IC50 worked out at 0.0091 µM.

As for `Nc1ncnn2c(-c3ccc(OCC(F)(F)F)c(C(=O)N[C@@H]4CN(C(=O)C5CC(F)(F)C5)C[C@@H]4F)c3)cc(C(F)(F)F)c12` [Example 1072, 5-[4-amino-5-(trifluoromethyl)pyrrolo[2,1-f][1,2,4]triazin-7-yl]-N-[(3R,4S)-1-(3,3-difluorocyclobutanecarbonyl)-4-fluoropyrrolidin-3-yl]-2-(2,2,2-trifluoroethoxy)benzamide], the IC50 was 0.079 µM.

For the compound `COc1ncc(-c2cc(C(F)(F)F)c3c(N)ncnn23)cc1C(=O)NC1CCCCC(c2ccccc2)C1` (stereo not drawn) [Example 1691, 5-(4-amino-5-(trifluoromethyl)pyrrolo[2,1-f][1,2,4]triazin-7-yl)-2-methoxy-N-(3-phenylcycloheptyl)nicotinamide], the IC50 stood at 0.013 µM.

Take `COc1ncc(-c2cc(CNCCO)c3c(N)ncnn23)cc1C(=O)Nc1cnn(Cc2ccccc2)c1` [Example 58, 5-(4-amino-5-(((2-hydroxyethyl)amino)methyl)pyrrolo[2,1-f][1,2,4]triazin-7-yl)-N-(1-benzyl-1H-pyrazol-4-yl)-2-methoxynicotinamide]: the IC50 came to 0.0041 µM.

Turning to `COc1ncc(-c2cc(CN)c3c(N)ncnn23)cc1C(=O)Nc1cnn(Cc2ccccc2)c1` [Example 53, 5-(4-amino-5-(aminomethyl)pyrrolo[2,1-f][1,2,4]triazin-7-yl)-N-(1-benzyl-1H-pyrazol-4-yl)-2-methoxynicotinamide], the IC50 came to 0.0044 µM.

As to `COc1ncc(-c2ccc3c(N)ncnn23)cc1C(=O)N[C@@H]1CN(C(=O)c2ccc(F)cc2)C[C@@H]1F` [Example 159, 5-{4-aminopyrrolo[2,1-f][1,2,4]triazin-7-yl}-N-[(3R,4S)-4-fluoro-1-(4-fluorobenzoyl)pyrrolidin-3-yl]-2-methoxypyridine-3-carboxamide], the IC50 is 0.065 µM.

As for `Nc1ncnn2c(-c3cc(F)c(F)c(C(=O)N[C@@H]4CN(C(=O)C5CC(F)(F)C5)C[C@@H]4F)c3)cc(C(F)(F)F)c12` [Example 1336, 5-[4-amino-5-(trifluoromethyl)pyrrolo-[2,1-f][1,2,4]triazin-7-yl]-N-[(3R,4S)-1-(3,3-difluorocyclobutanecarbonyl)-4-fluoropyrrolidin-3-yl]-2,3-difluoro-benzamide], the IC50 was found to be 0.015 µM.

Take `CCCOC(=O)N1C[C@H](F)[C@H](NC(=O)c2cc(-c3cc(CN4CCC(F)(F)CC4)c4c(N)ncnn34)cnc2OC)C1` [Example 1535, propyl (3R,4S)-3-(5-{4-amino-5-[(4,4-difluoropiperidin-1-yl)methyl]pyrrolo[2,1-f][1,2,4]triazin-7-yl}-2-methoxypyridine-3-amido)-4-fluoropyrrolidine-1-carboxylate]: the IC50 is 0.0015 µM.

Take `COc1ncc(-c2cc(C(=O)NCCNC(C)=O)c3c(N)ncnn23)cc1C(=O)NCC[C@H](O)c1ccc(Cl)cc1` [Example 68, 5-{4-amino-5-[(2-acetamidoethyl)carbamoyl]pyrrolo[2,1-f][1,2,4]triazin-7-yl}-N-[(3S)-3-(4-chlorophenyl)-3-hydroxypropyl]-2-methoxypyridine-3-carboxamide]: the IC50 amounted to 0.348 µM.

`Nc1ncnn2c(-c3cc(F)cc(C(=O)N[C@@H]4CN(C(=O)C5CCC(F)(F)CC5)C[C@@H]4F)c3)cc(C(F)(F)F)c12` [Example 609, 3-[4-amino-5-(trifluoromethyl)pyrrolo[2,1-f][1,2,4]triazin-7-yl]-N-[(3R,4S)-1-(4,4-difluorocyclohexanecarbonyl)-4-fluoropyrrolidin-3-yl]-5-fluorobenzamide]: the IC50 stood at 0.079 µM.

Turning to `COc1ncc(-c2cc(C(F)(F)F)c3c(N)ncnn23)cc1C(=O)N[C@@H]1CN(S(=O)(=O)C2CC3CCC2C3)C[C@@H]1F` (stereo partly drawn) [Example 1480, 5-[4-amino-5-(trifluoromethyl)pyrrolo[2,1-f][1,2,4]triazin-7-yl]-N-[(3R,4S)-1-{bicyclo[2.2.1]heptane-2-sulfonyl}-4-fluoropyrrolidin-3-yl]-2-methoxypyridine-3-carboxamide], the IC50 is 0.012 µM.
